Drawing on paper PMC9911399, “Two distinct binding modes provide the RNA-binding protein RbFox with extraordinary sequence specificity”, this text covers binding signal for 20 molecules.

First the molecules themselves.
B1: CCGCGCA (DNA:RNA)
RNA: GGGAGACCGGAAUUCAGAUUGUCCCCGCGCAUUAAAUCCCGUCGUAGCCACCA
DNA 1: CAATCTGAATTCCGGTCTCCC
DNA 2: TGGTGGCTACGACGGGATT
B2: CCGAGCG (DNA:RNA)
RNA: B1 RNA with C28A, A31G
DNA 1: CAATCTGAATTCCGGTCTCCC
DNA 2: TGGTGGCTACGACGGGATT
B3: GUGCUUU (DNA:RNA)
RNA: B1 RNA with C25G, C26U, G29U, C30U, A31U
DNA 1: CAATCTGAATTCCGGTCTCCC
DNA 2: TGGTGGCTACGACGGGATT
B4: UUCGAUG (DNA:RNA)
RNA: GGGAGACCGGAAUUCAGAUUGUCCUUCGAUGUUAAAUCCCGUCGUAGCCACCA
DNA 1: CAATCTGAATTCCGGTCTCCC
DNA 2: TGGTGGCTACGACGGGATT
B5: GGCCUAC (DNA:RNA)
RNA: B1 RNA with C25G, C26G, G27C, G29U, C30A, A31C
DNA 1: CAATCTGAATTCCGGTCTCCC
DNA 2: TGGTGGCTACGACGGGATT
B6: GUAUCAG (DNA:RNA)
RNA: B4 RNA with U25G, C27A, G28U, A29C, U30A
DNA 1: CAATCTGAATTCCGGTCTCCC
DNA 2: TGGTGGCTACGACGGGATT
B7: UUGCCCC (DNA:RNA)
RNA: B1 RNA with C25U, C26U, G29C, A31C
DNA 1: CAATCTGAATTCCGGTCTCCC
DNA 2: TGGTGGCTACGACGGGATT
B8: CAAAGGA (DNA:RNA)
RNA: B1 RNA with C26A, G27A, C28A, C30G
DNA 1: CAATCTGAATTCCGGTCTCCC
DNA 2: TGGTGGCTACGACGGGATT
B9: AAAAAAA (DNA:RNA)
RNA: B1 RNA with C25A, C26A, G27A, C28A, G29A, C30A
DNA 1: CAATCTGAATTCCGGTCTCCC
DNA 2: TGGTGGCTACGACGGGATT
B10: GGCACAG (DNA:RNA)
RNA: B4 RNA with U25G, U26G, G28A, A29C, U30A
DNA 1: CAATCTGAATTCCGGTCTCCC
DNA 2: TGGTGGCTACGACGGGATT
B11: AUCAACU (DNA:RNA)
RNA: B4 RNA with U25A, G28A, U30C, G31U
DNA 1: CAATCTGAATTCCGGTCTCCC
DNA 2: TGGTGGCTACGACGGGATT
B12: AACCCAG (DNA:RNA)
RNA: B4 RNA with U25A, U26A, G28C, A29C, U30A
DNA 1: CAATCTGAATTCCGGTCTCCC
DNA 2: TGGTGGCTACGACGGGATT
B13: AGUCGUU (DNA:RNA)
RNA: B1 RNA with C25A, C26G, G27U, C30U, A31U
DNA 1: CAATCTGAATTCCGGTCTCCC
DNA 2: TGGTGGCTACGACGGGATT
B14: AACUAGG (DNA:RNA)
RNA: B4 RNA with U25A, U26A, G28U, U30G
DNA 1: CAATCTGAATTCCGGTCTCCC
DNA 2: TGGTGGCTACGACGGGATT
B15: CAUGUCC (DNA:RNA)
RNA: B1 RNA with C26A, G27U, C28G, G29U, A31C
DNA 1: CAATCTGAATTCCGGTCTCCC
DNA 2: TGGTGGCTACGACGGGATT
B16: CGAGAGC (DNA:RNA)
RNA: B4 RNA with U25C, U26G, C27A, U30G, G31C
DNA 1: CAATCTGAATTCCGGTCTCCC
DNA 2: TGGTGGCTACGACGGGATT
B17: GGCCACA (DNA:RNA)
RNA: B1 RNA with C25G, C26G, G27C, G29A
DNA 1: CAATCTGAATTCCGGTCTCCC
DNA 2: TGGTGGCTACGACGGGATT
B18: CCCCGGC (DNA:RNA)
RNA: B1 RNA with G27C, C30G, A31C
DNA 1: CAATCTGAATTCCGGTCTCCC
DNA 2: TGGTGGCTACGACGGGATT
B19: ACCGGAU (DNA:RNA)
RNA: B1 RNA with C25A, G27C, C28G, C30A, A31U
DNA 1: CAATCTGAATTCCGGTCTCCC
DNA 2: TGGTGGCTACGACGGGATT
B20: UUGUCAU (DNA:RNA)
RNA: B4 RNA with C27G, G28U, A29C, U30A, G31U
DNA 1: CAATCTGAATTCCGGTCTCCC
DNA 2: TGGTGGCTACGACGGGATT

Positions count from the first letter of the chain named. The list shows a part of the results.

In this assay the target is T1, RBFOX1 RRM (Homo sapiens, UniProt Q9NWB1 109-208).
T1 sequence: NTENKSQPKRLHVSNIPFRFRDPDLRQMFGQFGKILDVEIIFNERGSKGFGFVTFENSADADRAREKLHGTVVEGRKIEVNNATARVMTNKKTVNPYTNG
In words: EMSA; HiTS-Eq, 1 nM pool, 10 min; buffer printed only for the single-RNA assays: 10 mM Tris pH 7.5, 150 mM NaCl, 3.4 mM EDTA, 0.001% NP-40, 30 C. Conditions: tags: His6 N-terminal (pET28a); label: 5' 32P. A digest of the protocol: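 Purified wild-type or mutant RbFox RRM at increasing concentrations was equilibrated with 1 nM of 5′-radiolabelled RNA carrying 7 randomized nucleotides for 10 min in 50 µL. Unbound RNA was separated by 8% native PAGE and sequenced. Relative association constants came from read-count changes of each RNA species compared with the control reaction, normalised to the cognate motif.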
On to B1, for which the binding signal is 0.00992 KA relative to UGCAUGU.
With B2 the figure was 0.0112 KA relative to UGCAUGU; with B3, 0.0205 KA relative to UGCAUGU.
Under B4 stands 0.0199 KA relative to UGCAUGU; under B5, 0.00449 KA relative to UGCAUGU; under B6, 0.011 KA relative to UGCAUGU.
With B7 the figure was 0.0117 KA relative to UGCAUGU; with B8, 0.00486 KA relative to UGCAUGU; with B9, 0.000895 KA relative to UGCAUGU.
On to B10, for which the binding signal is 0.00607 KA relative to UGCAUGU.
Take B11: the binding signal is 0.00232 KA relative to UGCAUGU.
As for B12, the binding signal was 0.000825 KA relative to UGCAUGU.
Under B13 stands 0.00948 KA relative to UGCAUGU.
With B14, the binding signal is 0.00678 KA relative to UGCAUGU.
As to B15, the binding signal is 0.00562 KA relative to UGCAUGU.
With B16 the figure was 0.0117 KA relative to UGCAUGU; with B17, 0.00555 KA relative to UGCAUGU.
With B18 the figure was 0.00228 KA relative to UGCAUGU.
Under B19 stands 0.00466 KA relative to UGCAUGU; under B20, 0.00962 KA relative to UGCAUGU.
